Measurements as given in the BET-seq Pho4 binding data (Le et al. 2018).
The list shows a part of the results. These are noisy estimates, calculated here from bound and input reads.

The sequences below were run against T1, Pho4 (S. cerevisiae) (UniProt P07270) (assay: relative binding free energy (BET-seq); higher = weaker binding). Conditions: reference: library average.
T1 sequence: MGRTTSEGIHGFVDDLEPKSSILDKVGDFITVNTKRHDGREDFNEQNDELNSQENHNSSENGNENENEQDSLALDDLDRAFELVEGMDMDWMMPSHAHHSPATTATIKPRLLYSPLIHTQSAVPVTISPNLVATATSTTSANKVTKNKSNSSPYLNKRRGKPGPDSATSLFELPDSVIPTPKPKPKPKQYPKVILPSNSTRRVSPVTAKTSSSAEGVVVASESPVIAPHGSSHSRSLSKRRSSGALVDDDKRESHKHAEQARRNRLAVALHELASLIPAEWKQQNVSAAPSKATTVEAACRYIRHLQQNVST

| Sequence | relative binding free energy [kcal/mol] |
| --- | --- |
| CGTTCCACGTGAGGGT | 0.26 |
| TGAGTCACGTGCGGTA | 0.18 |
| TGGTGCACGTGCATGA | -0.16 |
| GTTGTCACGTGTATAC | 0.11 |
| ACATGCACGTGTTAGG | -0.03 |
| GGCGGCACGTGCGGCG | -0.07 |
| ATACTCACGTGGTTTT | 0.04 |
| GTGGCCACGTGGGTTT | -0.2 |
| ACAGTCACGTGTGTTG | 0.16 |
| ACATGCACGTGGTAGT | -0.16 |
| GATATCACGTGGTGGT | 0.11 |
| TGTTTCACGTGTGTTC | 0.33 |
| TGTATCACGTGGTAAG | 0.11 |
| CGGTACACGTGGTTCG | 0.09 |
| CTGAACACGTGTGGTG | 0.18 |
| CGGTACACGTGTGTTG | 0.15 |
| GTGAGCACGTGATGTG | 0.01 |
| TTCGGCACGTGCTATG | -0.1 |
| ATAATCACGTGGTCGT | 0.06 |
| TTTCGCACGTGTAATA | 0.05 |
| CTGAGCACGTGTTTTT | -0.13 |
| GCTATCACGTGGTGGT | -0.03 |
| TTTCTCACGTGTGATA | 0.52 |

| Sequence | relative binding free energy [kcal/mol] |
| --- | --- |
| GTTTACACGTGTTGGG | 0.21 |
| GAGTTCACGTGATATA | 0.51 |
| CGGTGCACGTGGGATT | -0.06 |
| GGGTACACGTGCCGGG | 0.05 |
| CGGTGCACGTGGTGTG | -0.14 |
| ATTGTCACGTGGCTGG | 0.04 |
| ATGTTCACGTGCGGAT | 0.23 |
| GGTCTCACGTGGTGTT | 0.33 |
| GTCGGCACGTGTCAGT | 0.07 |
| GTGTGCACGTGACGGC | 0.09 |
| AGTTTCACGTGAGCAG | 0.33 |
| TGGGACACGTGATGCA | 0.12 |
| ACAGTCACGTGGATTG | 0.01 |
| GGAGGCACGTGTATGC | 0.05 |
| CTTATCACGTGTTAGT | 0.1 |
| GGTGGCACGTGGCGAA | -0.01 |
| CTACGCACGTGGGGTG | -0.4 |
| TTGTTCACGTGGGATA | 0.25 |
| TTAAGCACGTGCAGTA | 0.03 |
| AGCGGCACGTGGGTGG | -0.25 |
| TGGGGCACGTGGTGTT | -0.12 |
| TGGAACACGTGGTGTT | -0.07 |
| TGTATCACGTGTGCAT | 0.06 |

| Sequence | relative binding free energy [kcal/mol] |
| --- | --- |
| AGTGGCACGTGGAGTA | -0.18 |
| ATACTCACGTGTAGTG | 0.05 |
| GTTGACACGTGAGGGT | 0.33 |
| GTTAACACGTGATTGT | 0.29 |
| TGGATCACGTGCTGTA | -0.11 |
| CATTTCACGTGTGGTT | 0.3 |
| TAGGGCACGTGATTCA | 0.04 |
| TGTGTCACGTGTTCGG | 0.15 |
| CGTAGCACGTGGTATT | -0.21 |
| CTTAGCACGTGATTTG | 0.1 |
| GGTTTCACGTGGAGTC | 0.37 |
| TTGTTCACGTGTACAT | 0.3 |
| GGAGTCACGTGGCAGG | 0.06 |
| TATGGCACGTGTTAAG | -0.06 |
| GGAATCACGTGGAATA | 0.47 |
| TTTGACACGTGAGTAT | 0.28 |
| AGGGTCACGTGGGGTA | -0.05 |
| GATAGCACGTGTTCGG | 0.02 |
| ATTTTCACGTGATTAG | 0.27 |
| TACTTCACGTGAGTTT | 0.41 |
| CAATTCACGTGTGGAT | 0.21 |
| AGTGGCACGTGGCGTC | -0.17 |
| ATTTCCACGTGAGTGT | 0.11 |

| Sequence | relative binding free energy [kcal/mol] |
| --- | --- |
| TTAAGCACGTGACAGT | 0.06 |
| GTTATCACGTGATAAG | 0.16 |
| ACGGTCACGTGAGCGG | 0.12 |
| AGGGACACGTGTTTGC | 0.01 |
| GGGTCCACGTGATAGT | 0.14 |
| AGGTGCACGTGGGGAC | -0.1 |
| GGAGCCACGTGATTGT | 0.09 |
| TGAGTCACGTGCGGGT | -0.04 |
| TAAAGCACGTGGTATG | -0.25 |
| TTCATCACGTGGAGTG | 0.11 |
| CGAGGCACGTGTAGTG | 0.02 |
| TCTTTCACGTGGAGGG | 0.2 |
| GTGGGCACGTGACTCG | 0.14 |
| AGTAGCACGTGTGAAT | 0.07 |
| TTCGGCACGTGGGCGG | -0.27 |
| TTTGTCACGTGAGGGA | 0.33 |
| AGCATCACGTGTTAGT | 0.1 |
| ATTTGCACGTGCAGTG | 0.06 |
| AGTGGCACGTGCAGGC | -0.16 |
| CGTGTCACGTGAGTAG | 0.13 |
| GTGTGCACGTGCGAGT | 0.05 |
| CGATGCACGTGCGTGG | -0.07 |
| TGTAACACGTGTAGTT | 0 |

| Sequence | relative binding free energy [kcal/mol] |
| --- | --- |
| GTGTTCACGTGACGGT | 0.36 |
| AGGAGCACGTGTTATG | -0.01 |
| TTGGCCACGTGATGTT | 0.1 |
| TCTTTCACGTGAGGGT | 0.5 |
| GTCTACACGTGGAGGT | 0.17 |
| GGCGACACGTGAGATG | 0.41 |
| GGTTCCACGTGCTATG | 0.22 |
| TTAGCCACGTGAGGTT | 0.12 |
| TTGTTCACGTGGCTTA | 0.11 |
| GGTGGCACGTGCGCAG | -0.31 |
| GGACACACGTGGATGG | 0.24 |
| TTTTTCACGTGAGACT | 0.47 |
| TGTCTCACGTGAGTGA | 0.21 |
| GGGATCACGTGAGTGG | 0.3 |
| AGATGCACGTGGGTTG | -0.09 |
| CGGGGCACGTGCGGGC | -0.25 |
| AGCATCACGTGAGGTG | 0.3 |
| TAAATCACGTGATAAT | 0.32 |
| TATGGCACGTGGAAGA | -0.02 |
| TCGTTCACGTGTGTCG | 0.13 |
| GGTTTCACGTGATACG | 0.42 |
| GTGTGCACGTGATATA | 0.16 |
| GAGTTCACGTGGGGGT | 0.25 |
